Data reported in PMC4336329 (PLoS ONE, 2015).
Out of some 310,000 compounds screened, about 2,200 (0.71%) showed an effect of 50% or more. The effect is printed as a negative number. Some of the results follow.

These compounds were tested against human ether-à-go-go-related gene (hERG) potassium channel (human, UniProt Q12809) (assay: primary screen, population patch clamp on CHO cells stably expressing hERG).
Sequence of human ether-à-go-go-related gene (hERG) potassium channel (Q12809 whole entry, looked up): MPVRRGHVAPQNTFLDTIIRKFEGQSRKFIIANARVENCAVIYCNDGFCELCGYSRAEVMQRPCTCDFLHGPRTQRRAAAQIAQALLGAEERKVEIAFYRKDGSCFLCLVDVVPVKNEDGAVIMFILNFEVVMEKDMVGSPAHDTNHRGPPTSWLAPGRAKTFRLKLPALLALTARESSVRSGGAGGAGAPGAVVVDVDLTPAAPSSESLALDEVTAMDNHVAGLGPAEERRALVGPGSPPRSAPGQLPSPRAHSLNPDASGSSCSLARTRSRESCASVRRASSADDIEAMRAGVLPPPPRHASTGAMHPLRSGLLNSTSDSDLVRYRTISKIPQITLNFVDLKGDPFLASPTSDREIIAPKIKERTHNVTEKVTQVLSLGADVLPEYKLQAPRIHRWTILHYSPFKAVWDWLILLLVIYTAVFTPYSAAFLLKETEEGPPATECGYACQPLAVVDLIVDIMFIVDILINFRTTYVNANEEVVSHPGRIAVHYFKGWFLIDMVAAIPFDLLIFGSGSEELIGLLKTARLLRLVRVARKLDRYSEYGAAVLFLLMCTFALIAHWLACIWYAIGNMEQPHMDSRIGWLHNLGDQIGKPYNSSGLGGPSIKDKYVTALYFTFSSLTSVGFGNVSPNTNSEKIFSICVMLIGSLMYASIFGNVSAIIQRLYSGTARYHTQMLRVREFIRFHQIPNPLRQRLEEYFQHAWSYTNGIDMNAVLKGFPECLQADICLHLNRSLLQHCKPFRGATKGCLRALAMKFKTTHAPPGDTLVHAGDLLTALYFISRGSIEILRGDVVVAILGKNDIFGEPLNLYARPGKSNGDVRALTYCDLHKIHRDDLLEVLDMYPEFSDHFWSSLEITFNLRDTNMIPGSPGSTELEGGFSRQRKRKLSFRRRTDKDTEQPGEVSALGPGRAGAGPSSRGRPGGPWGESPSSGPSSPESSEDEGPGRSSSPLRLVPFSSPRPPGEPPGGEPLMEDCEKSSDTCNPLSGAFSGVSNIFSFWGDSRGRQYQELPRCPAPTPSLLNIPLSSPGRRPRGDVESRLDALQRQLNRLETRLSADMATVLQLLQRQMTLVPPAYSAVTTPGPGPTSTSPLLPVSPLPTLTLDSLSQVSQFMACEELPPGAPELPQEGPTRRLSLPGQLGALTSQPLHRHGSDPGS

SMILES	hERG current change (%, negative = inhibition) at 1uM [%]
O=C1CCC(=O)N1CNc1ccccn1	10.9
CC(C)NC(=O)c1ccccc1NC(=O)Cc1ccc([N+](=O)[O-])cc1	-4.56
CCOC(=O)c1ccc(-n2c(O)c(/C=N/NC(=O)C3COc4ccccc4O3)c3ccccc3c2=O)cc1 (centres unmarked)	1.15
COCCC(=O)N1CCC(Oc2ccc(C(=O)NCCCC3CCCC3)cc2)CC1	-3.93
Cn1c(N)c(C(=O)COC(=O)CCCc2c[nH]c3ccccc23)c(=O)n(C)c1=O	1.88
CC(=O)c1c(O)c2ccccc2n(Cc2ccccc2)c1=O	3.13
O=C(O)c1cccc([N+](=O)[O-])c1C(=O)Nc1ccc2ccccc2c1	3.62
Cc1cc(/C=N/n2cnnc2)c(O)c([N+](=O)[O-])c1	2.4
O=[N+]([O-])c1ccc(CN2CCN(c3ccc([N+](=O)[O-])cc3)CC2)cc1	-38
Cc1ccccc1NC(=O)C(C)Sc1nnc(-c2ccncc2)n1CC1CCCO1 (centres unmarked)	15.7
O=C(/C=C/c1ccc2c(c1)OCO2)N1CCN(c2ccc(Cl)cc2)CC1	14.2
CC(C)c1ccc(C(O)Cc2nc3ccccc3n2C)cc1 (centres unmarked)	10.4
CC1(C)Cc2ccccc2-c2nc(NCCCO)[nH]c(=O)c21	-9.11
C=CCn1c(SCC(=O)NCC2CCCO2)nc2scc(-c3ccco3)c2c1=O (centres unmarked)	-13.2
CCn1c(C)nc2cc(C(=O)N=Nc3c(O)[nH]c4c(C)cc(C)cc34)ccc21	14.6
CCN(CC)S(=O)(=O)c1ccc(Oc2cccc(C(C)=O)c2)nc1	3.84
O=C1CN(C(=O)CSc2nnc(-c3ccccc3)n2Cc2ccc3c(c2)OCO3)c2ccccc2N1	5.59
COc1ccc(N2CCN(C(=O)C3(S(=O)(=O)c4ccc(C)cc4)CC3)CC2)cc1	-7.35
Cc1cccc(CNC(=O)c2ccc3nc(Cc4ccccc4F)oc3c2)n1	12.7
O=C(Nc1ccc(Cl)cc1)OCc1cncs1	-6.49
O=C(CCCCCn1c(SCC(=O)c2ccccc2)nc2ccccc2c1=O)NCc1ccco1	14.7
Cc1cc(C)cc(N2C(=O)CSC2c2ccccn2)c1 (centres unmarked)	3.92
O=C(Nc1ccc(F)cc1F)c1cc(=O)n(-c2ccccc2)c(=O)[nH]1	6.03

SMILES	hERG current change (%, negative = inhibition) at 1uM [%]
CCN(C1CCCCC1)S(=O)(=O)c1ccc(-n2cnnn2)c(C)c1	9.55
O=C(CSCc1cccc(Cl)c1)N/N=C/c1ccc(OCC(=O)N2CCCCC2)cc1	4.16
CC(CCc1ccccc1)NC(=O)COc1cc(F)ccc1[N+](=O)[O-] (centres unmarked)	-0.81
O=C(Nc1ccnn1C1CCN(C2CCC2)CC1)c1cccc(F)c1	1.12
COc1cc2[nH]c(=O)c(C(=O)NCc3ccccc3Cl)c(O)c2cc1OC	8.46
CCN(CC)S(=O)(=O)c1cccc(NC(=O)COC(=O)CCC(=O)c2cccs2)c1	6.29
CN1CCCN(S(=O)(=O)c2ccc(O)c(C(=O)O)c2)CC1.Cl	9.33
COc1ccc(C(=O)N/N=C/c2sc(N3CCOCC3)nc2-c2ccccc2)cc1OC	3.64
O=C(O)CCC(=O)Nc1ccc(OCC2CCCO2)cc1 (centres unmarked)	20.1
CCN(CC)S(=O)(=O)c1cccc(C(=O)N/N=C/c2c(C)nn(-c3ccccc3)c2Cl)c1	14.5
COCCN(CCOc1cc(C)cc(C)c1)Cc1ccc(Cl)cc1	16.8
COc1ccc(NC(=O)N(Cc2ccc3c(c2)OCO3)C2CC(=O)N(c3ccc(OC)cc3)C2=O)cc1 (centres unmarked)	-7.51
O=C(c1ccccc1F)N(NC(=O)C(O)(c1ccccc1)c1ccccc1)c1ccccc1	11.7
Cc1cc(C)cc(Nc2cc(C)nc3nc(C)nn23)c1	-0.195
CCO[C@@H]1OC(C(=O)O)=C[C@H](c2ccc3c(c2)OCO3)[C@H]1CCCO	16.1
CSc1ccc(CN(C)CCc2ccccn2)cc1.O=C(O)C(=O)O	-21.3
O=C(Cn1cnc2ccccc21)N1CCN(S(=O)(=O)c2ccccc2)CC1	11
CCN(CC)Cc1ccc(OC)c(Cl)c1.Cl	4.41
CC(=O)Nc1ccc(S(=O)(=O)NNC(=O)C2CCCCC2)cc1	0.824
CCCC(C)NC(=O)c1ccccc1SC (centres unmarked)	9.4
CCOCC(=O)Nc1ccc(C(=O)Nc2ccccc2Cl)cc1	10
CCN(c1ccc(C)cc1C)S(=O)(=O)c1nnc(NC(=O)C(C)(C)C)s1	13.1
CCN(CC)S(=O)(=O)c1ccc(Cl)c(NC(=O)c2ccccc2C)c1	10.8

SMILES	hERG current change (%, negative = inhibition) at 1uM [%]
O=C(COC(=O)c1cc2c(s1)CCC2)Nc1ccc(F)cc1	13.3
Cc1ccc2c(c1)N(C(=O)CCC(=O)NCCCN1CC(C)CC(C)C1)CCO2 (centres unmarked)	-26.2
Cn1c(N)c(C(=O)/C=C/c2ccccc2)c(=O)[nH]c1=O	7.55
S=C(Nc1ccccc1)N1CCN(Cc2ccccc2)CC1	6.14
CC1CCCN(CCC(=O)Nc2ccccc2)C1.Cl (centres unmarked)	12.3
COc1ccc(-c2csc(-n3ncc(-c4ccccn4)c3N)n2)cc1	13.5
CCOC(=O)C1CCN(C(=O)c2ccc3c(c2)OCO3)CC1	4.64
COc1cccc(NC(=O)c2ccc3c(SCC(=O)O)c4c(nc3c2)CCCC4)c1	3.61
CCCCC(CC)C(=O)Nc1ccc(S(=O)(=O)N2CCCC2)cc1 (centres unmarked)	8.72
O=C(CC(c1ccccc1)(c1ccccc1)c1ccccc1)N[C@@H](Cc1ccc(O)cc1)C(=O)O	-2
CC1(C)Cc2c(sc(NC(=O)c3ccc4ncsc4c3)c2C(N)=O)C(C)(C)N1	10.3
CC(C)n1nnnc1-c1cc(Cl)cc(Cl)c1	-9.41
O=C(CN1C(=O)S/C(=C\c2ccc(C(=O)O)cc2)C1=O)Nc1ccccc1	14.8
Cc1cc(=O)[nH]c(SCC(=O)Nc2c(C)n(C)n(-c3ccccc3)c2=O)c1C#N	11.7
COc1ccc(C2/C(=C(/O)c3ccccc3)C(=O)C(=O)N2CO)cc1 (centres unmarked)	4.31
O=C(CSC(=S)N1CCOCC1)Nc1nccs1	4.12
CCOC(=O)C1CCN(C(=O)c2cccc(NC3=NC4CS(=O)(=O)CC4S3)c2)CC1 (centres unmarked)	7.14
CN(C)CCCn1c(SCc2ccc(Cl)cc2)nnc1-c1ccncc1.O=C(O)C(=O)O	7.61
O=C(CCC1COc2ccccc2O1)NCc1ccco1 (centres unmarked)	7.03
Cc1nnc(N/N=C/c2ccccc2C(F)(F)F)n1N.Cl	12.2
FC(F)(F)c1cccc(NC(=S)N2CCN(c3cccc(C(F)(F)F)c3)CC2)c1	10
COc1cc(NC(=O)c2csc(N)n2)cc(C(=O)Nc2cccc(C(F)(F)F)c2)c1	7.83
N#Cc1cc(C(=O)c2cc(Br)ccc2O)cn(C2CC2)c1=O	-7.81

SMILES	hERG current change (%, negative = inhibition) at 1uM [%]
Cc1ccc(-c2nnc(N3CCC(C)CC3)c3ccccc23)cc1	7.11
CCCCN(C(=O)CNC(=O)c1cccs1)C(C(=O)NC1CCCC1)c1ccncc1 (centres unmarked)	12.8
Nc1nc(Cl)c(C=O)c(N2CCCCC2)n1	0.77
CCOC(=O)C1CCCN(C(=S)Nc2ccc(C)cc2C)C1 (centres unmarked)	12
Cc1ccc(NC(=S)N2CCN(S(=O)(=O)c3ccccc3)CC2)cc1	8.97
CO/N=C(\Cn1ncc(N2CCCC2)c(Br)c1=O)c1ccc(Cl)cc1	12.4
CCC(C)[C@H](NC(=O)[C@@H]1CSC2c3ccccc3C(=O)N21)C(=O)NCC1CCCO1 (some centres unmarked)	20.6
Cl.NC(CCC(=O)O)C12CC3CC(CC(C3)C1)C2 (centres unmarked)	5.72
Cc1ccc(OCC(O)CN2CCN(c3ccccn3)CC2)c(C)c1.Cl (centres unmarked)	-1.95
O=C(CC(C(=O)O)c1cccc(Cl)c1)c1ccccc1 (centres unmarked)	12.9
COc1ccc(NC(=O)CN(C)CC(=O)Nc2ccccc2SC)cc1	4.92
CCN1CCCC1CNC1=NCCCCC1 (centres unmarked)	9.24
Cc1cc(S(=O)(=O)N2CCCC2)ccc1OCC(=O)N1CCOCC1	10.6
CCCCCCC#Cc1ccc2c(c1)COc1c3ccccc3nn1-2	11
COc1ccc(C(=O)C[n+]2cccc3cc(OC)ccc32)cc1.[Br-]	8.79
N#C/C(=N\Nc1ccccc1F)C(=N)N1CCCCC1	-4.33
CCOC(=O)/C(C#N)=C\c1ccc(CC)s1	-1.09
O=C(CCN1C(=O)c2ccncc2C1=O)NCc1ccc(Cl)cc1	-22
Cn1ccsc1=NC(=O)c1ccc(CS(C)(=O)=O)cc1	14.3
COC1(OC)N=C(N)C2(C#N)C(c3ccc(C)cc3)C12C#N (centres unmarked)	10.3
